The structures appear in SMILES notation. The list shows a part of the results. Many values rest on one well or one pass, so single values are uncertain.
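Further: cells treated in 1,536-well plates, then fixed and DAPI-stained, with nuclei counted from automated high-throughput microscope images.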

In the assay the test system is A375. In words: cell count relative to DMSO control; melanoma cells; higher = more viable cells. Particulars: library dose: standard library concentration; 72 h.
As to `O=C(Nc1cc(C(F)(F)F)cc(C(F)(F)F)c1)c1cc(Cl)ccc1O` + C[C@@H](Oc1cc(-c2cnn(C3CCNCC3)c2)cnc1N)c1c(Cl)ccc(F)c1Cl [Crizotinib] (first compound 0.08 µM, partner dose 1 µM), the cell count was 97.5%.
The same measure for `O=C(O)c1ccc2c(c1)nc(Nc1cccc(Cl)c1)c1ccncc12` + Cn1cc(/C=C2\C(=O)Nc3cccnc32)c2ccccc21 [GW441756] (first compound 2 µM, partner dose 2 µM): 124%; for `O=C(Nc1cc(C(F)(F)F)cc(C(F)(F)F)c1)c1cc(Cl)ccc1O` + CCCCCCCCCCCCCCCCCCOP(=O)([O-])OC1CC[N+](C)(C)CC1 [Perifosine] (first compound 0.08 µM, partner dose 2 µM): 66%; for `O=C(Nc1cc(C(F)(F)F)cc(C(F)(F)F)c1)c1cc(Cl)ccc1O` + Cn1nnc2c(C(N)=O)ncn2c1=O [temozolomide] (first compound 0.08 µM, partner dose 10 µM): 81.6%.
With `O=C(Nc1cc(C(F)(F)F)cc(C(F)(F)F)c1)c1cc(Cl)ccc1O` + CN(NC(=O)CC(=O)NN(C)C(=S)c1ccccc1)C(=S)c1ccccc1 [STA4783] (first compound 0.08 µM, partner dose 0.03 µM), the cell count was 128%.
Compound `O=C(O)[C@@H]1[O][Sb](=[O])([O][Sb]2(=[O])[O][C@H]([C@H](O)CO)[C@H](O)[C@H](C(=O)O)[O]2)[O][C@H]([C@H](O)CO)[C@@H]1O` (stereo not given in full) [stibogluconate] + CCCS(=O)(=O)Nc1ccc(F)c(C(=O)c2c[nH]c3ncc(Cl)cc23)c1F [PLX4720] (first compound 10 µM, partner dose 0.4 µM) gave a cell count of 82.3%.
The compound `Cn1nnc2c(C(N)=O)ncn2c1=O` [temozolomide] + CN(NC(=O)CC(=O)NN(C)C(=S)c1ccccc1)C(=S)c1ccccc1 [STA4783] (first compound 10 µM, partner dose 0.03 µM) displayed a cell count of 137%.
The same measure for `Cn1nnc2c(C(N)=O)ncn2c1=O` [temozolomide] + CO[C@@H]1[C@H](N(C)C(=O)c2ccccc2)C[C@H]2O[C@]1(C)n1c3ccccc3c3c4c(c5c6ccccc6n2c5c31)C(=O)NC4 [Midostaurin] (first compound 10 µM, partner dose 0.4 µM): 75.8%; for `O=C(O)c1ccc2c(c1)nc(Nc1cccc(Cl)c1)c1ccncc12` + CN(C)S(=O)(=O)c1ccc2c(c1)/C(=C/c1cc3c([nH]1)CCCC3)C(=O)N2 [SU6656] (first compound 2 µM, partner dose 2 µM): 66.4%.
For the compound `O=C(O)c1ccc2c(c1)nc(Nc1cccc(Cl)c1)c1ccncc12` + C=CCNC1=C2C[C@@H](C)C[C@H](OC)[C@H](O)[C@@H](C)/C=C(\C)[C@H](OC(N)=O)[C@@H](OC)/C=C\C=C(/C)C(=O)NC(=CC1=O)C2=O [Tanespimycin] (first compound 2 µM, partner dose 0.01 µM), the cell count stood at 81.1%.
`O=C(Nc1cc(C(F)(F)F)cc(C(F)(F)F)c1)c1cc(Cl)ccc1O` + CNC(=O)c1cc(Oc2ccc(NC(=O)Nc3ccc(Cl)c(C(F)(F)F)c3)cc2)ccn1 [sorafenib] (first compound 0.08 µM, partner dose 2 µM) registered a cell count of 106%.
In turn, `O=C(Nc1cc(C(F)(F)F)cc(C(F)(F)F)c1)c1cc(Cl)ccc1O` + COCC[n+]1c2c(n(Cc3cnccn3)c1C)C(=O)c1ccccc1C2=O [YM155] (first compound 0.08 µM, partner dose 0.002 µM) displayed a cell count of 89.9%.
The same measure for `O=C(Nc1cc(C(F)(F)F)cc(C(F)(F)F)c1)c1cc(Cl)ccc1O` + O=C(O)c1ccc(-c2c[nH]c3ncc(-c4ccccc4)cc23)cc1C1CCCC1 [GSK650394] (first compound 0.08 µM, partner dose 0.8 µM): 105%.
With `O=C(Nc1cc(C(F)(F)F)cc(C(F)(F)F)c1)c1cc(Cl)ccc1O` + OCc1c[nH]c2ccccc12 [Indole-3-carbinol] (first compound 0.08 µM, partner dose 4 µM) the figure was 82.4%; with `O=C(Nc1cc(C(F)(F)F)cc(C(F)(F)F)c1)c1cc(Cl)ccc1O` + Cc1ccc(Nc2nccc(N(C)c3ccc4c(C)n(C)nc4c3)n2)cc1S(N)(=O)=O [Pazopanib] (first compound 0.08 µM, partner dose 2 µM), 81.3%.
`O=C(Nc1ccccc1)c1cc([N+](=O)[O-])ccc1Cl` + COc1ccc(-c2ccc3c(N4CCOCC4)nc(N4C[C@@H](C)O[C@@H](C)C4)nc3n2)cc1CO [KU0063794] (first compound 10 µM, partner dose 0.1 µM) gave a cell count of 132%.
With `O=C(Nc1cc(C(F)(F)F)cc(C(F)(F)F)c1)c1cc(Cl)ccc1O` + Nc1cccc2c1CN(C1CCC(=O)NC1=O)C2=O [lenalidomide] (first compound 0.08 µM, partner dose 5 µM) the figure was 124%; with `O=C(O)c1ccc2c(c1)nc(Nc1cccc(Cl)c1)c1ccncc12` + CC(=O)c1c(C)c2cnc(Nc3ccc(N4CCNCC4)cn3)nc2n(C2CCCC2)c1=O [palbociclib] (first compound 2 µM, partner dose 0.2 µM), 47.5%; with `O=C(Nc1cc(C(F)(F)F)cc(C(F)(F)F)c1)c1cc(Cl)ccc1O` + COc1ccc(C2=N[C@@H](c3ccc(Cl)cc3)[C@@H](c3ccc(Cl)cc3)N2C(=O)N2CCNC(=O)C2)c(OC(C)C)c1 [Nutlin-3] (first compound 0.08 µM, partner dose 0.5 µM), 107%.
`O=C(O)c1ccc2c(c1)nc(Nc1cccc(Cl)c1)c1ccncc12` + CC1(C)NC(=O)N(c2ccc([N+](=O)[O-])c(C(F)(F)F)c2)C1=O [nilutamide] (first compound 2 µM, partner dose 5 µM): the cell count worked out at 91.1%.
With `O=C(O)[C@@H]1[O][Sb](=[O])([O][Sb]2(=[O])[O][C@H]([C@H](O)CO)[C@H](O)[C@H](C(=O)O)[O]2)[O][C@H]([C@H](O)CO)[C@@H]1O` (stereo not given in full) [stibogluconate] + CO[C@@H]1[C@H](N(C)C(=O)c2ccccc2)C[C@H]2O[C@]1(C)n1c3ccccc3c3c4c(c5c6ccccc6n2c5c31)C(=O)NC4 [Midostaurin] (first compound 10 µM, partner dose 0.4 µM) the figure was 78.8%; with `Cn1nnc2c(C(N)=O)ncn2c1=O` [temozolomide] + C=CCn1c(=O)c2cnc(Nc3ccc(N4CCN(C)CC4)cc3)nc2n1-c1cccc(C(C)(C)O)n1 [MK1775] (first compound 10 µM, partner dose 0.1 µM), 65.2%.
With `O=C(O)[C@@H]1[O][Sb](=[O])([O][Sb]2(=[O])[O][C@H]([C@H](O)CO)[C@H](O)[C@H](C(=O)O)[O]2)[O][C@H]([C@H](O)CO)[C@@H]1O` (stereo not given in full) [stibogluconate] + CO[C@H]1C[C@@H]2CC[C@@H](C)[C@@](O)(O2)C(=O)C(=O)N2CCCC[C@H]2C(=O)O[C@H]([C@H](C)C[C@@H]2CC[C@@H](OCCO)[C@H](OC)C2)CC(=O)[C@H](C)/C=C(\C)[C@@H](O)[C@@H](OC)C(=O)[C@H](C)C[C@H](C)/C=C/C=C/C=C/1C [everolimus] (first compound 10 µM, partner dose 0.1 µM) the figure was 121%.
With `O=C(O)[C@@H]1[O][Sb](=[O])([O][Sb]2(=[O])[O][C@H]([C@H](O)CO)[C@H](O)[C@H](C(=O)O)[O]2)[O][C@H]([C@H](O)CO)[C@@H]1O` (stereo not given in full) [stibogluconate] + COc1cc(Nc2ncc(F)c(Nc3ccc4c(n3)NC(=O)C(C)(C)O4)n2)cc(OC)c1OC [Tamatinib] (first compound 10 µM, partner dose 2 µM) the figure was 115%; with `Cc1cc(N2CCOCC2)cc2[nH]c(-c3c(NC[C@@H](O)c4cccc(Cl)c4)cc[nH]c3=O)nc12` + OCCn1cc(-c2cnc3nnn(Cc4ccc5ncccc5c4)c3n2)cn1 [PF04217903] (first compound 1 µM, partner dose 5 µM), 101%; with `O=C(O)c1ccc2c(c1)nc(Nc1cccc(Cl)c1)c1ccncc12` + Clc1ccc(Nc2nnc(Cc3ccncc3)c3ccccc23)cc1 [vatalanib] (first compound 2 µM, partner dose 10 µM), 80.8%.
For the compound `O=C(Nc1cc(C(F)(F)F)cc(C(F)(F)F)c1)c1cc(Cl)ccc1O` + OCCn1cc(-c2cnc3nnn(Cc4ccc5ncccc5c4)c3n2)cn1 [PF04217903] (first compound 0.08 µM, partner dose 5 µM), the cell count stood at 110%.
The same measure for `O=C(O)[C@@H]1[O][Sb](=[O])([O][Sb]2(=[O])[O][C@H]([C@H](O)CO)[C@H](O)[C@H](C(=O)O)[O]2)[O][C@H]([C@H](O)CO)[C@@H]1O` (stereo not given in full) [stibogluconate] + CN(NC(=O)CC(=O)NN(C)C(=S)c1ccccc1)C(=S)c1ccccc1 [STA4783] (first compound 10 µM, partner dose 0.03 µM): 142%.
Compound `O=C(Nc1cc(C(F)(F)F)cc(C(F)(F)F)c1)c1cc(Cl)ccc1O` + CCN(CC)CCNC(=O)c1c(C)[nH]c(/C=C2\C(=O)Nc3ccc(F)cc32)c1C [sunitinib] (first compound 0.08 µM, partner dose 2 µM) registered a cell count of 87.6%.
`O=C(O)[C@@H]1[O][Sb](=[O])([O][Sb]2(=[O])[O][C@H]([C@H](O)CO)[C@H](O)[C@H](C(=O)O)[O]2)[O][C@H]([C@H](O)CO)[C@@H]1O` (stereo not given in full) [stibogluconate] + O=C(CCCCCCC(=O)Nc1ccccc1)NO [vorinostat] (first compound 10 µM, partner dose 0.4 µM) had a cell count of 91.2%.

The values are drawn from the supplement of paper PMC4604168 (melanoma cell lines).
